Out of some 310,000 compounds screened, about 2,200 (0.71%) showed an effect of 50% or more. The effect is printed as a negative number. The list shows a part of the results.
The molecules below were run against human ether-à-go-go-related gene (hERG) potassium channel (human, UniProt Q12809) (assay: primary screen, population patch clamp on CHO cells stably expressing hERG).
human ether-à-go-go-related gene (hERG) potassium channel, sequence (Q12809 whole entry, looked up): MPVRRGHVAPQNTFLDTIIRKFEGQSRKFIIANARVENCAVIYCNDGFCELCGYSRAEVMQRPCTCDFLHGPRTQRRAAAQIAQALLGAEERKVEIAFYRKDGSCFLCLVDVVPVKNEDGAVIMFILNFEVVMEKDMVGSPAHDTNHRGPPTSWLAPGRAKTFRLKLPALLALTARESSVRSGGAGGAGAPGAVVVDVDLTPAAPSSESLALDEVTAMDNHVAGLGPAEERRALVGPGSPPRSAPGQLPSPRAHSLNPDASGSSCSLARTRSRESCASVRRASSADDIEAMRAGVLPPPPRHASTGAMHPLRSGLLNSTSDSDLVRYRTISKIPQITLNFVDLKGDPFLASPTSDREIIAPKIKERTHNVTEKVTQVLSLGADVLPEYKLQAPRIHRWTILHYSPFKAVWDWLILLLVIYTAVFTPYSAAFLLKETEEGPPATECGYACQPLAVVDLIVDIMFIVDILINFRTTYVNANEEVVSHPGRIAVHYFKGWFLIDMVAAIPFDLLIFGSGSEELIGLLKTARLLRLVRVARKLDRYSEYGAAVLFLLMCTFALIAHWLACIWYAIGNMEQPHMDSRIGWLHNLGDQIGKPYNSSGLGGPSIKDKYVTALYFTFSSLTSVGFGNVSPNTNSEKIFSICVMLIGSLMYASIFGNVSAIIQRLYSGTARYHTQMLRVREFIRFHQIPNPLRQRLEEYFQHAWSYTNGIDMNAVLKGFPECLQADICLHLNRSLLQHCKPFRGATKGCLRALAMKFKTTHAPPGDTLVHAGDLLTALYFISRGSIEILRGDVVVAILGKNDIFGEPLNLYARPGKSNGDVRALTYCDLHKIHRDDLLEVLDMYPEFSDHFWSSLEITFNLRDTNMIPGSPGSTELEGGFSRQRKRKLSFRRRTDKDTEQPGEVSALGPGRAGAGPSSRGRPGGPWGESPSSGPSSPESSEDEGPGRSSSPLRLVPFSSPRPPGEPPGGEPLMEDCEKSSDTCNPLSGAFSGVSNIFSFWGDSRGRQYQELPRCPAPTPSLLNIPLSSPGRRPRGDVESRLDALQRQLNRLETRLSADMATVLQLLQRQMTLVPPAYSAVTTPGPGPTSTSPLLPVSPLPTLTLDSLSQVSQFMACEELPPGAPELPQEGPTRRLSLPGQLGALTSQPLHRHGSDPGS

| Structure (SMILES) | hERG current change (%, negative = inhibition) at 1uM [%] |
| --- | --- |
| Cc1cc(N2CCOCC2)ccc1/C=C1\NC(=O)N(CC(=O)Nc2ccc(F)cc2)C1=O | 3.31 |
| O=C(CCCN1C(=O)/C(=C/c2cccs2)SC1=S)NNC(=O)c1ccncc1 | 0.723 |
| CC(=O)Oc1ccc2nc(CN3C(=O)c4ccc([N+](=O)[O-])cc4C3=O)oc(=O)c2c1 | 6.12 |
| O=C(OC(C(=O)NCc1ccco1)C(OC(=O)c1ccccc1)C(=O)NCc1ccco1)c1ccccc1 (stereo not shown) | 7.22 |
| Cc1cc(NC(=O)CC#N)n(-c2nc3ccccc3[nH]2)n1 | 4.24 |
| O=C(NCC1OCCc2ccccc21)c1ccco1 (stereo not shown) | 2.83 |
| FC(F)(F)c1nnc(-c2ccccc2)nc1Oc1ccccc1 | 14.5 |
| COc1ccc([N+](=O)[O-])cc1NS(=O)(=O)c1ccc(Cl)c(C(=O)Nc2sc3c(c2C#N)CCCCC3)c1 | 17.4 |
| CCCc1cc(=O)[nH]c(SCC(=O)N(CC)C2CCS(=O)(=O)C2)n1 (stereo not shown) | 15.5 |
| CCSc1nc(N2CCOCC2)c2ccccc2n1 | 11.7 |
| COc1ccc(-c2csc(N3CCN(C(=O)c4ccccc4)CC3)n2)cc1 | 13.5 |
| Cc1c(Cl)c(-c2n[nH]c(=S)n2-c2ccc(F)cc2)nn1C | 11.5 |
| COc1ccccc1OCc1ccc(C(=O)c2ccccc2)cc1 | 15.9 |
| O=C(Nc1ncccn1)c1cc(-c2cccc(Br)c2)nc2ccccc12 | 11.1 |
| O=C(CSc1nccn1-c1ncc(C(F)(F)F)cc1Cl)c1ccc(Br)cc1 | 3.16 |
| CCOc1ccccc1NC(=O)c1oc2ccccc2c1NC(=O)C1CCCO1 (stereo not shown) | 0.437 |
| COc1cc(CNS(=O)(=O)c2ccc3c(c2)CC(C)N3C(C)=O)cc(OC)c1OC (stereo not shown) | 24.4 |
| COc1ccc(NC(=S)NNC(=O)c2cccs2)cc1 | 12.3 |
| CCc1ccccc1NC(=O)CSc1nc2ccccc2nc1N1CCOCC1 | 5.43 |
| COc1ccc(NC(=O)c2cccc(-n3cnnn3)c2)cc1 | 5.08 |
| COc1ccc(-c2nnc3ccc(SCC(N)=O)nn23)cc1OC | 7.51 |
| Cc1cc(C)nc(SCc2nnc(SCC(=O)Nc3nc(-c4ccccc4)cs3)n2C)n1 | 5.48 |

| Structure (SMILES) | hERG current change (%, negative = inhibition) at 1uM [%] |
| --- | --- |
| COc1ccc2oc(-c3ccc(NC(=O)c4ccc(N5CCOCC5)c([N+](=O)[O-])c4)cc3)nc2c1 | 14.8 |
| COCCNC(=O)N1[C@H]2CC[C@@H]1C(C(=O)OC)=C(c1ccc(OC)c(OC)c1)C2 | 14.7 |
| O=C(CCc1c[nH]c2ccccc12)NCc1ccncc1 | 11.8 |
| COc1ccc2c3c(c(=O)oc2c1OCC(=O)O)CCCC3 | 23.8 |
| C(=C\c1ccccc1)/C=N/Nc1nc2ccccc2[nH]1 | -5.22 |
| COC(=O)[C@@H]1C[C@@]2(O)[C@H](O)[C@H](O)[C@H](O)C[C@H]2N1C/C=C/c1ccccc1 | 9.96 |
| COCCNc1nc(NCc2ccccc2)c2cnn(C)c2n1 | 13.4 |
| CCOCCn1c(SCC(=O)OCc2ccccc2)nc2c1c(=O)[nH]c(=O)n2C | -10.8 |
| O=S(=O)(c1ccc(Cl)nc1)N1CCCCC1 | 8.5 |
| Nc1c(C(=O)NC2CCCC2)sc2nc(-c3cccs3)ccc12 | 17.6 |
| CCN(C(=O)CCN1C(=O)c2ccccc2S1(=O)=O)c1ccccc1 | -4.86 |
| CCOc1ccc(CSC2=NCCN2)cc1[N+](=O)[O-].Cl | -71 |
| COc1ccc(C2=NS(=O)(=O)N(C)C(C(=O)N3CCOCC3)=C2)cc1 | -7.33 |
| COc1cc(/C=C2\C(=O)N(c3ccccc3)N=C2C)ccc1Oc1ccc([N+](=O)[O-])cc1[N+](=O)[O-] | 23.8 |
| NS(=O)(=O)c1ccc(N2CCCC2=O)c([N+](=O)[O-])c1 | 9.69 |
| Cc1nc(Cl)sc1C(=O)NC(C)c1ccc(Cl)cc1 (stereo not shown) | 4.03 |
| O=C1c2cccc3cccc(c23)C(=O)N1c1cccc(O)c1 | 8.09 |
| CC(=O)c1c(C)[nH]c(C(=O)OCc2nnc(-c3ccccc3)o2)c1C | 15.8 |
| Cc1nc(C(=O)Nc2ccc(Cl)cc2Cl)nn1-c1cc(OC(C)C)c(Cl)cc1Cl | 6.96 |
| Cn1cc(Br)c(NS(=O)(=O)c2ccc(Cl)s2)n1 | 6.77 |
| Cc1ccc(CNC(=O)c2ccc3c(c2)S(=O)(=O)c2ccccc2C3=O)o1 | -1.73 |
